In the supplement of paper PMC10126150:
Values marked as one replicate rest on one cluster of the flow cell; about a third of the high ones do not repeat.

System: ATP
Assay: switch fluorescence ratio, 500 uM ATP over buffer (Cy3 cluster intensity, sum of 5 cycles each) (fold (ratio)); higher = stronger signal-on switching upon ATP binding; sequences stand for … in TCGTCGGCAGCGTCAGATGTGTATAAGAGACAGTTTTTTTTTTTTTTTTTTTTTTTTT…TC
Conditions: aptamer strand: ATP DNA aptamer (quencher-CACCTGGGGGAGTATTGCGGAGGAAGG + anchor), 100 nM annealed; ATP concentration: 500 uM; one replicate
How it was run: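 Switching-strand clusters labelled with Cy3 on a modified Illumina MiSeq flow-cell were annealed to 100 nM quencher-labelled ATP aptamer, imaged in selection buffer, and re-imaged after 15 min with 500 uM ATP at 22 °C. This was done over five cycles with NaOH stripping and re-annealing in between. The fluorescence ratio is summed target-cycle over summed buffer-cycle Cy3 intensity per cluster, averaged per switch-domain sequence, excluding clusters outside 100-1000 RFU.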
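Note: ATP exposure 15 min at 22 °C before imaging.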

| Sequence | switch fluorescence ratio |
| --- | --- |
| TTAGAGAT | 1.01 |
| GATCGATGCC | 0.993 |
| TATGAGGCT | 1.09 |
| GAGATCTAAG | 0.966 |
| CTCGGCTCTT | 1.04 |
| ACGTTCCGGG | 1.29 |
| CCGGTAACAA | 2.29 |
| GCGTGTGAAG | 1.03 |
| CATTTGACAA | 0.977 |
| AACGCGTCCA | 0.987 |
| TAGAGCGCTA | 1.05 |
| GCGTCAAACT | 1.03 |
| ATGGTTATTG | 0.982 |
| ATGTTGACGT | 1.06 |
| CATATGGCAG | 1.01 |
| TGTTATTCTC | 0.976 |
| GTGGTAGGCT | 1.03 |
| GTGGGGGCGA | 0.945 |
| CGCATTGAAA | 1.06 |
| AGGTGCAACT | 1 |
| CGCGTTTACT | 1.46 |
| AGGCGAAATA | 1.01 |
| TTGGAGGAAG | 0.984 |

| Sequence | switch fluorescence ratio |
| --- | --- |
| GTGTTCTCTG | 1 |
| TTATGCAACT | 1.18 |
| CTAAATTTGC | 0.998 |
| TATTTTATG | 1.04 |
| GCAAGTAGGC | 1.01 |
| TAAAGTAACG | 0.973 |
| TCTCTAAGT | 1.04 |
| TCTCTCGAGC | 1.1 |
| GCCTGTGGTT | 0.987 |
| AGGTCGGTGT | 1.01 |
| GAGCAACTGT | 1.01 |
| AGGCTGGCAG | 0.955 |
| ATTAAGGCC | 1.01 |
| GGTGGCAAAA | 1.02 |
| GTGTGCGAA | 1 |
| GTTTGCTAAC | 0.981 |
| GCAAAGTTGA | 1.08 |
| GGAAACGAAG | 0.992 |
| AAAAATTGAG | 0.989 |
| AGCTCGCTGC | 0.972 |
| AAGATTCTT | 0.963 |
| ATGTACATAC | 1.25 |
| GATTCCTGCT | 0.957 |

| Sequence | switch fluorescence ratio |
| --- | --- |
| ATCTGTTTGT | 0.998 |
| TTGGTAGAGA | 1 |
| GACGGAACTT | 1.22 |
| AGTGTTAGAT | 0.979 |
| AGTCTGCGTA | 1.01 |
| GCAGGCCTCT | 0.956 |
| ACATTACGGT | 1.44 |
| TCTACTTGAG | 1.02 |
| CATGTTTGA | 0.981 |
| CTGACTGGGC | 1.26 |
| TGATGGTAGA | 0.964 |
| TACAACAGGG | 1.1 |
| AACAGTAAGG | 1.09 |
| CAGGCTGTGC | 0.999 |
| CGTGAGGCTT | 0.998 |
| GTTAGGTCG | 1.04 |
| TTACCAATTT | 0.964 |
| TCAACATTGC | 1.11 |
| ACCCCGTGGG | 0.998 |
| TGCACCGGCG | 0.975 |
| AACACTTAGG | 1.03 |
| TCGGAATGGA | 0.986 |
| GTAGGGGAGG | 0.987 |

| Sequence | switch fluorescence ratio |
| --- | --- |
| TTGCGTATTC | 1.31 |
| TTGGTCAAT | 0.998 |
| TCCAAGCGTT | 1.22 |
| TGGCGGTGTA | 1.01 |
| GAGGGGGTAC | 0.974 |
| TATACGGACC | 1.48 |
| CTCCTGTACT | 1.87 |
| CCGGGTCCTA | 0.964 |
| GCTGTCGA | 1.02 |
| GCAGGGTTGA | 0.996 |
| AAAAGCGCGT | 1.15 |
| ACACCAAGTG | 1.06 |
| GCAGCTGGAG | 1.02 |
| AGAACGTAAT | 1.09 |
| GTACTTGCGA | 1.04 |
| TGAAGGTATA | 1.02 |
| TTGGACGCGA | 1.27 |
| GGATATGGCT | 0.992 |
| TCATTTTAGG | 0.949 |
| GTAGCTGCCA | 1.02 |
| CTGCTCGGCG | 0.999 |
| TGGTTTACGA | 1 |
| GGCGTCGGA | 0.939 |

| Sequence | switch fluorescence ratio |
| --- | --- |
| GTGTTCAACT | 0.99 |
| GTGATAATCA | 1.01 |
| CTGTTTCTCA | 0.981 |
| AACAAAAATT | 1.17 |
| GTTTTGTTA | 1.02 |
| CAACGTTGAC | 1.05 |
| GAAGCTTTTA | 1.03 |
| CCAGAGGGGC | 1.05 |
| TCATTGCCAA | 1.08 |
| CGAAAGCTTA | 1.11 |
| TTCTAGAAGA | 0.973 |
| TCAGGATCAG | 0.971 |
| CAACTACTAT | 1.1 |
| CATTCGAAGT | 1.01 |
| ACTTGAGCTA | 1.08 |
| AGGCATTG | 0.995 |
| CCAATGGGGA | 1 |
| ATGCGTTCTT | 1 |
| CCGGAGGGCC | 1.17 |
| CAAGGTCTGC | 1.01 |
| GAACAAGCGT | 0.973 |
| ATGTAGCTCC | 1.05 |
| TTTCACAGAT | 1 |

| Sequence | switch fluorescence ratio |
| --- | --- |
| TAGGGTTTG | 0.997 |
| CGGGCCGCCC | 1.07 |
| GCCACCAGCC | 1.07 |
| CAAAGACGGA | 0.967 |
| GCATTTGTCG | 1.01 |
| CGACATATGA | 1.03 |
| GGGGATGCTT | 0.986 |
| CAAGTAATTT | 1.04 |
| TATTGCAAG | 0.975 |
| GCGTCTTGGA | 0.992 |
| GTTAAACCGA | 1.2 |
| GGTCTCCGTG | 0.991 |
| GCCCTTTATG | 0.972 |
| GGATCAGCCG | 0.919 |
| AGCAGATTGG | 0.99 |
| ACACGCTGCG | 1.02 |
| GAAATGACCT | 1.43 |
| AAATCCACCG | 1.13 |
| CCCCGGAGGG | 1.01 |
| CTTCATTTTT | 0.995 |
| CTTGTACCG | 0.97 |
| TACATAGACT | 1.05 |
| GTGTTTAGAT | 0.959 |

| Sequence | switch fluorescence ratio |
| --- | --- |
| ACCTCCGAAG | 5.99 |
| CTCTACGAGT | 1.01 |
| CCTTGGAAGG | 1.01 |
| CGATAAGTAC | 1.67 |
| GTTGCCGGGA | 0.968 |
| TATAAGTAAA | 1.12 |
| CTTAGTAAGA | 1.01 |
| GGGCTTCAAA | 1 |
| ACAAGGGGTT | 1.12 |
| ACGGGGCCGA | 1 |
| GTCGCAGTCA | 1.01 |
| GCTGAAGCTT | 1.04 |
| TATGTAGGCT | 1.07 |
| TGACCGGGGA | 1.04 |
| CGGTGAACC | 1 |
| CTCAGCCCGA | 1.09 |
| CCGTTGAG | 1.06 |
| CGGTCTGTCT | 1.03 |
| CATGAGATGC | 1.05 |
| TAGCGCCAGT | 0.936 |
